{"source": "the supplement of paper PMC12217912", "parents": {"B1": {"name": "TEV protease; numbered along this chain (parent)", "chain": "MGESLFKGPRDYNPISSSICHLTNESDGHTTSLYGIGFGPFIITNKHLFRRNNGTLVVQSLHGVFKVKDTTTLQQHLVDGRDMIIIRMPKDFPPFPQKLKFREPQREERICLVTTNFQTKSMSSMVSDTSCTFPSGDGIFWKHWIQTKDGQCGSPLVSTRDGFIVGIHSASNFTNTNNYFTSVPKNFMELLTNQEAQQWVSGWRLNADSVLWGGHKVFMVKPEEPFQPVKEATQL"}}, "note": "The other results are listed elsewhere or left out. The full chains were built here from the parent and the listed change. Values near 0.05 are background.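 Note: Bxb1 expression induced with 0.2% (w/v) L-rhamnose at OD600 near 0.5, cultures sampled hourly, flipped fraction per protease–substrate barcode pair counted by paired-end Illumina sequencing.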", "data": [{"variants_of": "B1", "test": "raw area under fraction-flipped curve 0-4 h after induction (AUC4h, not background-subtracted), DNA-recorder readout of cleavage of the substrate (dimensionless); higher = more cleavage of the substrate by the protease variant", "conditions": "temperature: 34 °C; time window: 0-4 h after rhamnose induction", "values": [{"variant": "MGESLFKGPRDYNPISSSICHLTNESDGHTTSLYGIGFGPFIITNKHLFRRNNGTLVVQSLHGVFKVKDTTTLQQHLVDGRDMIIIRMPKDFPPFPQKLKFREPQREERICLVTTNFQTKSMSSMVSDTSCTFPSGDGIFWKHWIQTKDGQCGSPLVSTRDGFIVGIHSASNFENTNNYFTSVPKNFMELLTNQEAQQWVSGWRLNADSVLWGGHKVFMVKPEEPFQPVKEATQL", "note": "[T174E]", "area with substrate ENLYFFS": 0.065, "area with substrate ENLYFIS": 0.0506, "area with substrate ENLYFLS": 0.0609, "area with substrate ENLYFTS": 0.0577, "area with substrate ENLYFYS": 0.05}, {"variant": "MGESLFKGPRDYNPISSSICHLTNESDGHTTSLYGIGFGPFIITNKHLFRRNNGTLVVQSLHGVFKVKDTTTLQQHLVDGRDMIIIRMPKDFPPFPQKLKFREPQREERICLVTTNFQTKSMSSMVSDTSCTFPSGDGIFWKHWIQTKDGQCGSPLVSTRDGFIVGIHSASNFFNTNNYFTSVPKNFMELLTNQEAQQWVSGWRLNADSVLWGGHKVFMVKPEEPFQPVKEATQL", "note": "[T174F]", "area with substrate ENLYFFS": 0.0443, "area with substrate ENLYFIS": 0.0439, "area with substrate ENLYFMS": 0.0487, "area with substrate ENLYFPS": 0.0608, "area with substrate ENLYFRS": 0.0713, "area with substrate ENLYFTS": 0.058, "area with substrate ENLYFWS": 0.0626, "area with substrate ENLYFYS": 0.0606}, {"variant": "MGESLFKGPRDYNPISSSICHLTNESDGHTTSLYGIGFGPFIITNKHLFRRNNGTLVVQSLHGVFKVKDTTTLQQHLVDGRDMIIIRMPKDFPPFPQKLKFREPQREERICLVTTNFQTKSMSSMVSDTSCTFPSGDGIFWKHWIQTKDGQCGSPLVSTRDGFIVGIHSASNFTNTNQYFTSVPKNFMELLTNQEAQQWVSGWRLNADSVLWGGHKVFMVKPEEPFQPVKEATQL", "note": "[N178Q]", "area with substrate ENLYFFS": 0.0651, "area with substrate ENLYFIS": 0.0485, "area with substrate ENLYFMS": 0.091, "area with substrate ENLYFPS": 0.0641, "area with substrate ENLYFRS": 0.0623, "area with substrate ENLYFWS": 0.0518, "area with substrate ENLYFYS": 0.04}, {"variant": "MGESLFKGPRDYNPISSSICHLTNESDGHTTSLYGIGFGPFIITNKHLFRRNNGTLVVQSLHGVFKVKDTTTLQQHLVDGRDMIIIRMPKDFPPFPQKLKFREPQREERICLVTTNFQTKSMSSMVSDTSCTFPSGDGIFWKHWIQTKDGQCGSPLVSTRDGFIVGIHSASLFTNTNNYFTSVPKNFMELLTNQEAQQWVSGWRLNADSVLWGGHKVFMVKPEEPFQPVKEATQL", "note": "[N172L]", "area with substrate ENLYFFS": 0.0678, "area with substrate ENLYFVS": 0.0551}, {"variant": "MGESLFKGPRDYNPISSSICHLTNESDGHTTSLYGIGFGPFIITNKHLFRRNNGTLVVQSLHGVFKVKDTTTLQQHLVDGRDMIIIRMPKDFPPFPQKLKFREPQREERICLVTTNFQTKSMSSMVSDTSCTFPSGDGIFWKHWIQTKDGQCGSPLVSTRDGFIVGIHSASHFTNTNNYFTSVPKNFMELLTNQEAQQWVSGWRLNADSVLWGGHKVFMVKPEEPFQPVKEATQL", "note": "[N172H]", "area with substrate ENLYFFS": 0.0858, "area with substrate ENLYFIS": 0.0726, "area with substrate ENLYFLS": 0.0483, "area with substrate ENLYFMS": 0.058, "area with substrate ENLYFRS": 0.113, "area with substrate ENLYFVS": 0.0573}, {"variant": "MGESLFKGPRDYNPISSSICHLTNESDGHTTSLYGIGFGPFIITNKHLFRRNNGTLVVQSLHGVFKVKDTTTLQQHLVDGRDMIIIRMPKDFPPFPQKLKFREPQREERICLVTTNFQTKSMSSMVSDTSCTFPSGDGIFWKHWIQTKDGQCGSPLVSTRDGFIVGIHSASNFTNTNNYFTSVPKNFMELLTNQEAQPWVSGWRLNADSVLWGGHKVFMVKPEEPFQPVKEATQL", "note": "[Q198P]", "area with substrate ENLYFFS": 0.0699, "area with substrate ENLYFLS": 0.0551, "area with substrate ENLYFSS": 0.0635, "area with substrate ENLYFTS": 0.055, "area with substrate ENLYFVS": 0.0555, "area with substrate ENLYFWS": 0.0579}, {"variant": "MGESLFKGPRDYNPISSSICHLTNESDGHTTSLYGIGFGPFIITNKHLFRRNNGTLVVQSLHGVFKVKDTTTLQQHLVDGRDMIIIRMPKDFPPFPQKLKFREPQREERICLVTTNFQTKSMSSMVSDTSCTFPSGDGIFWKHWIQTKDGQCGSPLVSTRDGFIVGIHSASNFTNTNNYFTSVPKNFMELLTNQEAQGWVSGWRLNADSVLWGGHKVFMVKPEEPFQPVKEATQL", "note": "[Q198G]", "area with substrate ENLYFFS": 0.0564, "area with substrate ENLYFGS": 0.0502, "area with substrate ENLYFKS": 0.0813, "area with substrate ENLYFMS": 0.0575, "area with substrate ENLYFNS": 0.05, "area with substrate ENLYFPS": 0.0641, "area with substrate ENLYFRS": 0.0268, "area with substrate ENLYFTS": 0.0669, "area with substrate ENLYFVS": 0.0726, "area with substrate ENLYFWS": 0.0763, "area with substrate ENLYFYS": 0.0266}, {"variant": "MGESLFKGPRDYNPISSSICHLTNESDGHTTSLYGIGFGPFIITNKHLFRRNNGTLVVQSLHGVFKVKDTTTLQQHLVDGRDMIIIRMPKDFPPFPQKLKFREPQREERICLVTTNFQTKSMSSMVSDTSCTFPSGDGIFWKHWIQTKDGQCGSPLVSTRDGFIVGIHSASNFTNTNNYFTSVPKNFMELLTCQEAQQWVSGWRLNADSVLWGGHKVFMVKPEEPFQPVKEATQL", "note": "[N193C]", "area with substrate ENLYFFS": 0.0684, "area with substrate ENLYFRS": 0.0583, "area with substrate ENLYFYS": 0.0627}, {"variant": "MGESLFKGPRDYNPISSSICHLTNESDGHTTSLYGIGFGPFIITNKHLFRRNNGTLVVQSLHGVFKVKDTTTLQQHLVDGRDMIIIRMPKDFPPFPQKLKFREPQREERICLVTTNFQTKSMSSMVSDTSCTFPSGDGIFWKHWIQTKDGQCGSPLVSTRDGFIVGIHSKSNFTNTNNYFTSVPKNFMELLTNQEAQQWVSGWRLNADSVLWGGHKVFMVKPEEPFQPVKEATQL", "note": "[A170K]", "area with substrate ENLYFFS": 0.0746, "area with substrate ENLYFHS": 0.0418, "area with substrate ENLYFLS": 0.062, "area with substrate ENLYFPS": 0.0603, "area with substrate ENLYFWS": 0.0443}, {"variant": "MGESLFKGPRDYNPISSSICHLTNESDGHTTSLYGIGFGPFIITNKHLFRRNNGTLVVQSLHGVFKVKDTTTLQQHLVDGRDMIIIRMPKDFPPFPQKLKFREPQREERICLVTTNFQTKSMSSMVSDTSCTFPSGDGIFWKHWIQTKDGQCGSPLVSTRDGFIVGIHSSSNFTNTNNYFTSVPKNFMELLTNQEAQQWVSGWRLNADSVLWGGHKVFMVKPEEPFQPVKEATQL", "note": "[A170S]", "area with substrate ENLYFFS": 0.0477, "area with substrate ENLYFIS": 0.0567, "area with substrate ENLYFTS": 0.0507, "area with substrate ENLYFWS": 0.0558}, {"variant": "MGESLFKGPRDYNPISSSICHLTNESDGHTTSLYGIGFGPFIITNKHLFRRNNGTLVVQSLHGVFKVKDTTTLQQHLVDGRDMIIIRMPKDFPPFPQKLKFREPQREERICLVTTNFQTKSMSSMVSDTSCTFPSGDGIFWKHWIQTKDGQCGSPLVSTRDGFIVGIHSASNFTNTNNYSTSVPKNFMELLTNQEAQQWVSGWRLNADSVLWGGHKVFMVKPEEPFQPVKEATQL", "note": "[F180S]", "area with substrate ENLYFFS": 0.0541, "area with substrate ENLYFIS": 0.0525, "area with substrate ENLYFNS": 0.0377}]}]}
